# Assay results reported in PubChem BioAssay AID588342 (National Center for Advancing Translational Sciences (NCATS), 2011).
# The whole screen tested about 360,000 compounds, of which about 25,000 (6.9%) were called active. This list was built around the results that the source calls inconclusive (neither active nor inactive); the mix of calls is not that of the screen. The call rests on the fitted dose curve; in most records, active means well fitted inhibition curve with a large enough effect; inconclusive means small, poorly fitted or top-dose-only effect; inactive means flat fitted curve, though single readings scatter. A potency beside an inconclusive call is a rough fit, not a confirmed value.
# Target: Luciferin 4-monooxygenase (Photinus pyralis) (UniProt P08659)
# UniProt P08659, sequence (P08659 whole entry, looked up): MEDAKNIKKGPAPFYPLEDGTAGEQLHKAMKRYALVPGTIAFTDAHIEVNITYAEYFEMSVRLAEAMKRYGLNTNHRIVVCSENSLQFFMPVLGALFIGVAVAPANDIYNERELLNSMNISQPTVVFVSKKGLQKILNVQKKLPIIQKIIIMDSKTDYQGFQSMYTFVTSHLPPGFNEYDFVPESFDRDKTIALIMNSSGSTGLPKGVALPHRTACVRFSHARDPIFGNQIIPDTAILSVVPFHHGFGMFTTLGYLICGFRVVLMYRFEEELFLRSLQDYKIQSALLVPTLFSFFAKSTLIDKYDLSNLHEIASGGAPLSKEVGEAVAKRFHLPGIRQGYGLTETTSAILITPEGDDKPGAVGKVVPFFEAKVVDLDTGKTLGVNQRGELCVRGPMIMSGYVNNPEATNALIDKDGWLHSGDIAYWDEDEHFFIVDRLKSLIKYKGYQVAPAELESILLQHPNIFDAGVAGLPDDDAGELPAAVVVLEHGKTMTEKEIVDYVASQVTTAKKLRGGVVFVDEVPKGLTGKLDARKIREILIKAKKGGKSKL
# Test: qHTS profiling assay for firefly luciferase inhibitor/activator using purifed enzyme and Km concentrations of substrates (counterscreen for miR-21 project); further: nearly all actives have a fitted effect of over 55% in size
# Details: purified FLuc, luminescence inhibition; series mostly up to 57.5 µM
# In short: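 Purified P. pyralis luciferase, 10 nM final, with Km-level 10 uM D-luciferin and 10 uM ATP in 50 mM Tris acetate pH 7.5, 10 mM Mg acetate, 0.01% Tween-20, 0.05% BSA; 6-point qHTS titration about 60 µM downward; luminescence read.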
# Potency means the concentration at half of the fitted maximal effect; tags describe the fitted curve by direction and shape.
row,Compound,Potency
1,CC(C)(C)OC(=O)NCCCCCc1nnc(SCc2cccc(F)c2)o1,"inconclusive: 37.9 µM [inhibitor, partial curve, poor fit]"
2,COc1cccc(NC(=O)c2cccc(C)c2[N+](=O)[O-])c1,active: 19 µM
3,c1coc(-c2ccnc(-c3ccncc3)n2)c1,"inconclusive: 23.9 µM [inhibitor, partial curve, poor fit]"
4,CS(=O)c1ccccc1-c1nc(-c2cccc(Cl)c2)no1 (stereo not drawn),"inconclusive: 37.9 µM [inhibitor, single point]"
5,CC(C)Oc1cccc(C(=O)NC(=S)Nc2ccc(N3CCN(C)CC3)cc2)c1,"inconclusive: 23.9 µM [inhibitor, partial curve]"
6,COc1ccc(-c2cn3c(C)c(C(=O)NC(C)C)sc3n2)cc1,"inconclusive: 3.01 µM [inhibitor, partial curve, poor fit]"
7,O=[N+]([O-])c1cccc(/C=N/Nc2ncc(Br)cn2)c1,"inconclusive: 8.49 µM [inhibitor, partial curve, poor fit]"
8,Cc1cccc(-c2cc3nc4c(c(NCc5ccco5)n3n2)CCCC4)c1,active: 10.7 µM
9,O=C(N/N=C/c1ccccn1)c1ccncc1,"inconclusive: 23.9 µM [inhibitor, partial curve]"
10,C=CCOc1ccc(/C=C/C(=O)OCC(=O)Nc2c(C)n(C)n(-c3ccccc3)c2=O)cc1,"inconclusive: 37.9 µM [inhibitor, partial curve, poor fit]"
11,COc1ccc(OCC(=O)Nc2ccc(N3CCN(C(=O)c4ccccc4)CC3)c(Cl)c2)cc1,inactive
12,COc1ccc(NC(=O)N2CCc3c(sc4c3CCCC4)C2c2ccc(F)cc2)cc1 (stereo not drawn),inactive
13,Cn1c2c(c(=O)[nH]c1=O)C(c1ccc(O)cc1)C1=C(N2)c2ccccc2C1=O (stereo not drawn),active: 16.9 µM
14,CC(C)(C)Nc1nc2cc([N+](=O)[O-])ccc2o1,"inconclusive: 33.8 µM [inhibitor, partial curve, poor fit]"
15,O=C(CCSCc1ccccc1F)N1CCN(c2ccc(F)cc2)CC1,inactive
16,Cc1nc2ccc(Cc3ccc4nc(C)[nH]c4c3)cc2[nH]1,"inconclusive: 21.3 µM [inhibitor, single point]"
17,Cc1cccc(CN2C(=O)/C(=C\c3ccc(C(=O)NCCCN4CCN(C)CC4)cc3)Oc3ccccc32)c1,"inconclusive: 30.1 µM [inhibitor, partial curve, poor fit]"
18,COc1ccc(N2CCN(C(=O)c3ccc(NS(=O)(=O)c4ccc(F)c(F)c4)cc3)CC2)cc1,"inconclusive: 23.9 µM [inhibitor, single point]"
